Data published in article PMC4336329 (PLoS ONE, 2015).
The whole screen tested about 310,000 compounds, of which about 2,200 (0.71%) showed an effect of 50% or more. The effect is printed as a negative number. This is one part of the list.

Biological target: human ether-à-go-go-related gene (hERG) potassium channel (human, UniProt Q12809)
Test: primary screen, population patch clamp on CHO cells stably expressing hERG

Chain of human ether-à-go-go-related gene (hERG) potassium channel (Q12809 whole entry, looked up): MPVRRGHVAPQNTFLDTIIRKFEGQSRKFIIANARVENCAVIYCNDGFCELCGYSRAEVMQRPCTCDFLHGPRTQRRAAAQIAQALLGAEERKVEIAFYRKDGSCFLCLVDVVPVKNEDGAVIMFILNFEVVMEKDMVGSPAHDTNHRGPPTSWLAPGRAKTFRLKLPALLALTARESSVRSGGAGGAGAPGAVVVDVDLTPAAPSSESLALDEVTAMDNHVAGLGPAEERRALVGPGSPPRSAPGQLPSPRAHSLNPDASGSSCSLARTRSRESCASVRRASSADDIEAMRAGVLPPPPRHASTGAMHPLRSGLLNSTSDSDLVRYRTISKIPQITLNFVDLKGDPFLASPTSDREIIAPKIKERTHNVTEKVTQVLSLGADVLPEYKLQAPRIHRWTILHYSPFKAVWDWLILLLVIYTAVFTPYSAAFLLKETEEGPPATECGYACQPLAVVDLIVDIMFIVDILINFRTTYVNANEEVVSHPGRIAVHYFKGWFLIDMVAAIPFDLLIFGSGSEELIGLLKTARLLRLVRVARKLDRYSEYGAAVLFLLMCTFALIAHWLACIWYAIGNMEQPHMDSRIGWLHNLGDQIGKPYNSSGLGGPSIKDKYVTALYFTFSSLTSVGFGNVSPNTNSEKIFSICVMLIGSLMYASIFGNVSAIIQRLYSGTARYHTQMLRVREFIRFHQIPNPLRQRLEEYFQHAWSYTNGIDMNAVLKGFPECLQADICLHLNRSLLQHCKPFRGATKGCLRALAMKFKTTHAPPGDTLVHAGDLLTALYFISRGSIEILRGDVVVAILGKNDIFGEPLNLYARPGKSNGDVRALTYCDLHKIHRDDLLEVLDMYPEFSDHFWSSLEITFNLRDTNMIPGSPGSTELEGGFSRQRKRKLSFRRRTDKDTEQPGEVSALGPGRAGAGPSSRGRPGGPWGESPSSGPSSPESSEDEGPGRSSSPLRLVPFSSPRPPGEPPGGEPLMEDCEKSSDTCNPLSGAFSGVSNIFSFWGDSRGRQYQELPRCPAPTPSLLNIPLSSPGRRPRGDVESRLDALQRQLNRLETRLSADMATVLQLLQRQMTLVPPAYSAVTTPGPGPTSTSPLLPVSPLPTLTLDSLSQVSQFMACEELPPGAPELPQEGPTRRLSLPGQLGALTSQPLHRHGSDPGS

In order of rising “hERG current change (%, negative = inhibition) at 1uM” value:
1. CCOC(=O)N1CCN(C(=O)c2ccc(Oc3ccc([N+](=O)[O-])cc3)cc2)CC1  -44.4%
2. O=C(CN1CCC(C(=O)c2ccc(F)cc2)CC1)Nc1ccc(F)cc1  -31.6%
3. CCN(CC)S(=O)(=O)c1ccc2oc(SCc3ccc(F)cc3)nc2c1  -17.5%
4. CCN(CC)CCCn1c2c(c(SCC(=O)Nc3ccccc3Cl)nc1=O)CCC2  -16.6%
5. Cc1ccccc1C(=O)c1cccn1CC(=O)NCCN1CCN(c2cccc(C)c2C)CC1  -14.3%
6. CC12CCC(=O)N1C(C(=O)Nc1nnc(SCc3ccccc3F)s1)CS2 (stereo not drawn)  -13.9%
7. O=C1C(=C(O)c2ccccc2)C(=O)c2ccccc21  -13.3%
8. CCc1c(C)nc2ncnn2c1N1CCC(C(=O)NCc2ccc3c(c2)OCO3)CC1  -11.4%
9. C/C(=N\NC(=O)c1cccc(S(=O)(=O)N2CCOCC2)c1)c1ccc(OC(F)F)cc1  -10.6%
10. COc1ccc(OC)c(-c2cc(C(=O)Nc3sc4c(c3C#N)CCC(C)C4)c3ccccc3n2)c1 (stereo not drawn)  -5.25%
11. CN(C(=O)c1ccc(OC2CCN(Cc3ccccn3)CC2)cc1)C1CCCCC1  -4.55%
12. CCCCn1c(N)c(N(CCOC)C(=O)c2sc3ccccc3c2Cl)c(=O)[nH]c1=O  -4.2%
13. CSC1=N/C(=C\c2ccc(Br)o2)C(=O)S1  -4.11%
14. CCOc1ccc(NC(=O)CN(c2cccc(C(F)(F)F)c2)S(C)(=O)=O)cc1  -2.42%
15. CC(C)(C)NS(=O)(=O)c1ccc(NC(=O)NC2CCCCC2)cc1  -2.32%
16. Cc1ccc(S(=O)(=O)N2CCn3cccc3C2C)cc1 (stereo not drawn)  -2.04%
17. CC1(C)CC(=O)C=C(NNC(=O)c2ccc(N)cc2)C1  -0.802%
18. Clc1ccc(C2CC(c3ccco3)n3ncnc3N2)cc1Cl (stereo not drawn)  0.804%
19. Cc1ccc(NC(=O)c2cc(S(=O)(=O)N3CCc4ccccc43)cn2C)cc1  1.73%
20. CS(=O)(=O)N1CCN(C(=O)c2ccncc2)CC1  1.75%
21. Cc1cc(NCC2CCCCC2)nc2ccccc12  1.9%
22. COc1cc(OC)c(NS(=O)(=O)c2c(C(=O)N3CCCCC3)c(C)n(C)c2C)cc1Cl  2.25%
23. O=C(COC(=O)COc1ccc(Br)cc1)NCc1ccccc1  2.44%
24. CCOc1ccc(NC(=O)C(CC)n2nc(C)c3c(C)n(-c4ccccc4)nc3c2=O)cc1 (stereo not drawn)  3.52%
25. CCOC(=O)C1=C(N)N2C(=O)C(C)SC2=C(C(=O)OCC)C1c1ccc(O)cc1 (stereo not drawn)  3.63%
26. Cc1sc2nc(CSCC(=O)N(C)c3ccccc3)[nH]c(=O)c2c1C  3.66%
27. Cl.Fc1ccc(OCCCCN2CCOCC2)cc1  4.45%
28. Cc1cccc(CCN(CC(=O)NCc2ccc(F)cc2)C(=O)c2csnn2)c1  5.22%
29. Cc1cc(C)cc(NC(=O)c2ccc(S(=O)(=O)C(F)F)cc2)c1  5.72%
30. CN(C)c1ccc(CNS(=O)(=O)c2ccc3c(c2)C(C)(C)C(=O)N3C)cc1  5.79%
31. CCCOc1ccc(OC(=O)Cc2ccc(OC)c(S(=O)(=O)N3CCOCC3)c2)cc1  6.26%
32. O=C1CC(N2CCN(c3ccc(F)cc3)CC2)C(=O)N1c1ccccc1 (stereo not drawn)  6.38%
33. COCCn1c(SCC(=O)Nc2ccc3c(c2)OCCO3)nnc1-c1c[nH]c2ccccc12  6.58%
34. Cc1cc(=O)oc2cc(OCC(=O)NCc3ccccn3)ccc12  6.83%
35. CC(C)Cc1nnc(NC(=O)CCc2c[nH]c3ccccc23)s1  7.1%
36. Cc1ccc(-c2cc(NC(=O)CSc3n[nH]c(N)n3)n(-c3ccccc3)n2)cc1  7.46%
37. CC(=O)Oc1ccc(C(=O)Nc2ccccc2NC(=O)c2ccc(OC(C)=O)cc2)cc1  7.48%
38. COC(=O)c1ccccc1NC(=O)CSc1n[nH]c(C)n1  7.61%
39. CC1=C(C(=O)NCCN2CCN(C)CC2)C2(CCC(C)CC2)OC1=O (stereo not drawn)  7.67%
40. COC(=O)c1ccc(C(=O)OC)c(NC(=O)COc2ccccc2OC)c1  7.73%
41. COc1ccc(CC(=O)NCCCCc2ccccc2)cc1OC  8.03%
42. Cc1cc2ccccc2n2c(SCC(=O)NCc3cccs3)nnc12  8.13%
43. Cc1cn(C2OC(COC(=O)c3ccccc3)C(OC(=O)c3ccccc3)C2OC(=O)c2ccccc2)c(=O)[nH]c1=O (stereo not drawn)  8.14%
44. O=C(NCCNc1ccc([N+](=O)[O-])cc1)c1cccc2c(Br)cccc12  8.49%
45. CC(=O)Nc1cc2nn(-c3ccccc3)nc2cc1Cl  8.74%
46. CCCCCCCCn1c(=O)c(C(=O)OC)c(N)c2ccccc21  9.08%
47. COc1ccccc1NS(=O)(=O)c1cc(NC(=O)c2sccc2C)ccc1N1CCOCC1  9.43%
48. Cc1nc2scc(-c3ccc(Cl)cc3)c2c(=O)o1  9.48%
49. COc1ccc(C)c2sc(=NC(=O)c3cccc(N4C(=O)CCC4=O)c3)n(C)c12  10.2%
50. COc1ccccc1N(C)S(=O)(=O)c1ccc(C(=O)OCC(=O)N(C)c2ccccc2)cc1  10.4%
51. CC(OC(=O)c1ccccc1)C(=O)NCCC1=CCCCC1 (stereo not drawn)  10.4%
52. Cc1cc(Cl)ccc1NC(=O)CN(C)C1=NS(=O)(=O)c2ccccc21  10.6%
53. Cc1cnc(C(=O)OCC(=O)Nc2ccccc2-c2ccccc2)cn1  10.7%
54. NC(=O)c1cc(-c2ccccc2)sc1NC(=O)Cc1ccc(S(=O)(=O)N2CCOCC2)s1  10.7%
55. O=C(NC12CC3CC(CC(C3)C1)C2)c1ccc(-c2ccc(Cl)cc2)o1  10.9%
56. CCCOc1ccc(N2C(=O)CC(N(CCc3ccc(OC)c(OC)c3)C(=S)Nc3ccccc3)C2=O)cc1 (stereo not drawn)  11.1%
57. O=C1CCc2cc(S(=O)(=O)NCCC(=O)NC3CCCCC3)ccc2N1  11.2%
58. O=c1[nH]c2ccc(NS(=O)(=O)c3ccc(F)c(Cl)c3)cc2[nH]1  11.2%
59. NC(=O)c1sc2nc(-c3cccs3)ccc2c1N  11.2%
60. O=C(Nc1ccc(-c2nc3ccccc3o2)cc1)c1cccnc1  11.4%
61. CCOc1nc(Oc2cccc(C(=O)O)c2)nc(Oc2cccc(C(=O)O)c2)n1  11.4%
62. Nc1cccnc1Oc1ccc(F)cc1  11.4%
63. CCOC(=O)[C@H](CCc1ccccc1)N[C@@H](C)C(=O)N1Cc2ccccc2C[C@H]1C(=O)O.Cl  11.5%
64. CCC(C)NC(=O)c1c(N)n(CC2CCCO2)c2nc3ccccc3nc12 (stereo not drawn)  11.7%
65. Cc1cc(NN)nc(NS(=O)(=O)c2ccccc2Cl)n1  11.7%
66. COc1ccc(C(=O)NNC(=O)c2ccc(S(=O)(=O)N3CCOCC3)cc2)cc1  11.7%
67. COc1ccc(Cl)cc1NC(=O)CCCN1C(=O)CCC1=O  11.7%
68. O=C(OCCN1C(=O)c2ccccc2C1=O)c1cccs1  11.9%
69. Cc1nc(S(=O)(=O)N2CCN(C3c4ccccc4-c4ccccc43)CC2)cn1C  12.2%
70. Cc1c(C)n(CC(O)CNCCO)c2ccccc12.O=C(O)C(=O)O (stereo not drawn)  12.3%
71. CCc1cc(=O)oc2cc(OCC(=O)O)c(Cl)cc12  12.7%
72. COc1ccc(/C=N/NC(=O)CC(=O)NC2CCCCC2)cc1  12.9%
73. Cc1ccc2ncnc(Oc3ncccc3[N+](=O)[O-])c2c1  13.3%
74. COc1ccc(-n2nc(C(=O)NCC(=O)N3CCCCCC3)c3ccccc3c2=O)c(OC)c1  13.6%
75. O=C(O)CC1(CC(=O)NCc2cccc(Cl)c2)CCCCC1  13.6%
76. Cc1cc(=O)[nH]c(SCC(=O)Nc2ccccc2C)n1  13.7%
77. COc1cc(NS(=O)(=O)c2ccc(NS(=O)(=O)c3ccccc3)cc2)nc(OC)n1  13.8%
78. CCOC(=O)/C(=C\c1ccc(OC)c(OC)c1)C(=O)c1cccnc1  13.9%
79. Cc1ccc(-c2nc(-c3cccnc3)sc2CC(=O)Nc2ccc(C)c(Cl)c2)cc1  13.9%
80. COCCNC(=O)Cn1cc2c(n1)CCC(C)C2 (stereo not drawn)  14.1%
81. COc1ccc(NC(=S)NN2CCN(C)CC2)cc1OC  14.2%
82. CCOC(=O)N1CCc2c(sc3ncn(Cc4ccc(F)cc4)c(=O)c23)C1  14.6%
83. CCN1C[C@]2(CO)CC[C@H](OC)[C@@]34C5C[C@H]6[C@H](OC)C5[C@](O)(C[C@H]6OC)[C@@](O)(C(OC)C23)[C@@H]14 (stereo partly drawn)  15%
84. COc1ccccc1OCCCC(=O)Nc1ccc2c(c1)OCCO2  16.5%
85. CNC(=S)N1CCN(CCNC2=CC(=O)CC(C)(C)C2)CC1  18.7%
86. N#Cc1c(Cl)nsc1NN  18.9%
87. O=C(Nc1ccc(NC(=O)c2cccs2)cc1)c1ccc2ccccc2c1  21.8%
